# In the supplement of paper PMC8728848:
# The other results are listed elsewhere or left out.
# B1: BTL (Bryothamnion triquetrum) (protein)
# chain: ADPICGSSGYSCTTPAILTPKSPGSFPSGYSKVIVTGVGGSYSVYIHRPDGFKVYKASEGGCASFGSYSGGGNSEVGKYGSGGTVVAVACK
# What was measured:
# Assay in all cases: glycan array binding signal (z-score within array); higher = stronger binding
# Conditions in all cases: glycan notation: IUPAC condensed, linker removed
# Gal(a1-6)Glc = biological target: Gal(a1-6)Glc
# Outline: (§1)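 The binding signal is a Z-score computed within each array. Data were drawn from 3228 arrays in the Consortium for Functional Glycomics database, restricted to those with a known protein sequence. Scores were averaged over arrays of the same protein sequence at different concentrations or buffers, and over linkers, and negative values can be taken as non-binding.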
# Gal(b1-2)Gal = biological target: Gal(b1-2)Gal
# Outline: as §1
# Gal(b1-3)Gal = biological target: Gal(b1-3)Gal
# Outline: as §1
# Gal(b1-3)Gal(b1-4)GlcNAc = biological target: Gal(b1-3)Gal(b1-4)GlcNAc
# Outline: as §1
# Gal(b1-3)GalNAc = biological target: Gal(b1-3)GalNAc
# Outline: as §1
# [1] = biological target: Gal(b1-3)GalNAc(a1-3)[Fuc(a1-2)]Gal(b1-4)Glc
# Outline: as §1
# [2] = biological target: Gal(b1-3)GalNAc(a1-3)[Fuc(a1-2)]Gal(b1-4)GlcNAc
# Outline: as §1
# Gal(b1-3)GalNAc(b1-3)Gal = biological target: Gal(b1-3)GalNAc(b1-3)Gal
# Outline: as §1
# [3] = biological target: Gal(b1-3)GalNAc(b1-3)Gal(a1-4)Gal(b1-4)Glc
# Outline: as §1
# [4] = biological target: Gal(b1-3)GalNAc(b1-4)Gal(b1-4)Glc
# Outline: as §1
# [5] = biological target: Gal(b1-3)GalNAc(b1-4)[Neu5Ac(a2-3)]Gal(b1-4)Glc
# Outline: as §1
# Gal(b1-3)GlcNAc = biological target: Gal(b1-3)GlcNAc
# Outline: as §1
# [6] = biological target: Gal(b1-3)GlcNAc(a1-3)Gal(b1-4)GlcNAc
# Outline: as §1
# [7] = biological target: Gal(b1-3)GlcNAc(a1-6)Gal(b1-4)GlcNAc
# Outline: as §1
# Gal(b1-3)GlcNAc(b1-2)Man = biological target: Gal(b1-3)GlcNAc(b1-2)Man
# Outline: as §1
# [8] = biological target: Gal(b1-3)GlcNAc(b1-2)Man(a1-3)[Gal(b1-3)GlcNAc(b1-2)Man(a1-6)]Man(b1-4)GlcNAc(b1-4)GlcNAc
# Outline: as §1
# [9] = biological target: Gal(b1-3)GlcNAc(b1-2)Man(a1-3)[Gal(b1-3)GlcNAc(b1-2)Man(a1-6)]Man(b1-4)GlcNAc(b1-4)[Fuc(a1-6)]GlcNAc
# Outline: as §1
# [10] = biological target: Gal(b1-3)GlcNAc(b1-2)Man(a1-3)[GlcNAc(b1-4)][Gal(b1-3)GlcNAc(b1-2)Man(a1-6)]Man(b1-4)GlcNAc(b1-4)GlcNAc
# Outline: as §1
# [11] = biological target: Gal(b1-3)GlcNAc(b1-2)[Gal(b1-3)GlcNAc(b1-6)]Man(a1-6)[Gal(b1-3)GlcNAc(b1-2)Man(a1-3)]Man(b1-4)GlcNAc(b1-4)GlcNAc
# Outline: as §1
# [12] = biological target: Gal(b1-3)GlcNAc(b1-3)Gal(b1-3)GlcNAc
# Outline: as §1
# [13] = biological target: Gal(b1-3)GlcNAc(b1-3)Gal(b1-4)Glc
# Outline: as §1
# [14] = biological target: Gal(b1-3)GlcNAc(b1-3)Gal(b1-4)GlcNAc
# Outline: as §1
# [15] = biological target: Gal(b1-3)GlcNAc(b1-3)Gal(b1-4)GlcNAc(b1-2)Man(a1-3)[Gal(b1-3)GlcNAc(b1-3)Gal(b1-4)GlcNAc(b1-2)Man(a1-6)]Man(b1-4)GlcNAc(b1-4)GlcNAc
# Outline: as §1
# [16] = biological target: Gal(b1-3)GlcNAc(b1-3)Gal(b1-4)GlcNAc(b1-2)[Gal(b1-3)GlcNAc(b1-3)Gal(b1-4)GlcNAc(b1-6)]Man(a1-6)[Gal(b1-3)GlcNAc(b1-3)Gal(b1-4)GlcNAc(b1-2)Man(a1-3)]Man(b1-4)GlcNAc(b1-4)[Fuc(a1-6)]GlcNAc
# Outline: as §1
# [17] = biological target: Gal(b1-3)GlcNAc(b1-3)Gal(b1-4)GlcNAc(b1-3)Gal(b1-4)GlcNAc(b1-2)[Gal(b1-3)GlcNAc(b1-3)Gal(b1-4)GlcNAc(b1-3)Gal(b1-4)GlcNAc(b1-6)]Man(a1-6)[Gal(b1-3)GlcNAc(b1-3)Gal(b1-4)GlcNAc(b1-3)Gal(b1-4)GlcNAc(b1-2)Man(a1-3)]Man(b1-4)GlcNAc(b1-4)[Fuc(a1-6)]GlcNAc
# Outline: as §1
# [18] = biological target: Gal(b1-3)GlcNAc(b1-3)Gal(b1-4)GlcNAc(b1-6)[Gal(b1-3)GlcNAc(b1-3)]Gal(b1-4)Glc
# Outline: as §1
# [19] = biological target: Gal(b1-3)GlcNAc(b1-3)Gal(b1-4)[Fuc(a1-3)]GlcNAc
# Outline: as §1
# [20] = biological target: Gal(b1-3)GlcNAc(b1-3)Gal(b1-4)[Fuc(a1-3)]GlcNAc(b1-6)[Gal(b1-3)GlcNAc(b1-3)]Gal(b1-4)Glc
# Outline: as §1
# [21] = biological target: Gal(b1-3)GlcNAc(b1-3)GalNAc
# Outline: as §1
# [22] = biological target: Gal(b1-3)GlcNAc(b1-6)Gal(b1-4)GlcNAc
# Outline: as §1
# [23] = biological target: Gal(b1-3)GlcNAc(b1-6)GalNAc
# Outline: as §1
# [24] = biological target: Gal(b1-3)GlcNAc(b1-6)[Gal(b1-3)]GalNAc
# Outline: as §1
# Gal(b1-3)GlcNAc6S = biological target: Gal(b1-3)GlcNAc6S
# Outline: as §1
# [25] = biological target: Gal(b1-3)[Fuc(a1-4)]GlcNAc
# Outline: as §1
# [26] = biological target: Gal(b1-3)[Fuc(a1-4)]GlcNAc(b1-2)Man
# Outline: as §1
# [27] = biological target: Gal(b1-3)[Fuc(a1-4)]GlcNAc(b1-2)Man(a1-3)[Gal(b1-3)[Fuc(a1-4)]GlcNAc(b1-2)Man(a1-6)]Man(b1-4)GlcNAc(b1-4)[Fuc(a1-6)]GlcNAc
# Outline: as §1
# [28] = biological target: Gal(b1-3)[Fuc(a1-4)]GlcNAc(b1-3)Gal(b1-3)[Fuc(a1-4)]GlcNAc
# Outline: as §1
# [29] = biological target: Gal(b1-3)[Fuc(a1-4)]GlcNAc(b1-3)Gal(b1-4)[Fuc(a1-3)]GlcNAc
# Outline: as §1
# [30] = biological target: Gal(b1-3)[Fuc(a1-4)]GlcNAc(b1-6)GalNAc
# Outline: as §1
# [31] = biological target: Gal(b1-3)[GlcNAc(b1-6)]GalNAc
# Outline: as §1
# [32] = biological target: Gal(b1-3)[Neu5Ac(a2-6)]GalNAc
# Outline: as §1
# [33] = biological target: Gal(b1-3)[Neu5Ac(a2-6)]GlcNAc(b1-4)Gal(b1-4)Glc
# Outline: as §1
# [34] = biological target: Gal(b1-3)[Neu5Ac(b2-6)]GalNAc
# Outline: as §1
# Gal(b1-4)Gal = biological target: Gal(b1-4)Gal
# Outline: as §1
# [35] = biological target: Gal(b1-4)GalNAc(a1-3)[Fuc(a1-2)]Gal(b1-4)GlcNAc
# Outline: as §1
binder,measurement,setting,value
B1,glycan array binding signal (z-score),Gal(a1-6)Glc,-0.287
same,glycan array binding signal (z-score),Gal(b1-2)Gal,-0.232
same,glycan array binding signal (z-score),Gal(b1-3)Gal,-0.189
same,glycan array binding signal (z-score),Gal(b1-3)Gal(b1-4)GlcNAc,-0.234
same,glycan array binding signal (z-score),Gal(b1-3)GalNAc,-0.199
same,glycan array binding signal (z-score),[1],-0.293
same,glycan array binding signal (z-score),[2],-0.201
same,glycan array binding signal (z-score),Gal(b1-3)GalNAc(b1-3)Gal,-0.22
same,glycan array binding signal (z-score),[3],-0.148
same,glycan array binding signal (z-score),[4],-0.226
same,glycan array binding signal (z-score),[5],-0.219
same,glycan array binding signal (z-score),Gal(b1-3)GlcNAc,-0.227
same,glycan array binding signal (z-score),[6],-0.2
same,glycan array binding signal (z-score),[7],-0.216
same,glycan array binding signal (z-score),Gal(b1-3)GlcNAc(b1-2)Man,-0.208
same,glycan array binding signal (z-score),[8],-0.154
same,glycan array binding signal (z-score),[9],4.76
same,glycan array binding signal (z-score),[10],-0.109
same,glycan array binding signal (z-score),[11],-0.183
same,glycan array binding signal (z-score),[12],-0.239
same,glycan array binding signal (z-score),[13],-0.205
same,glycan array binding signal (z-score),[14],-0.201
same,glycan array binding signal (z-score),[15],-0.189
same,glycan array binding signal (z-score),[16],0.07
same,glycan array binding signal (z-score),[17],2.33
same,glycan array binding signal (z-score),[18],-0.165
same,glycan array binding signal (z-score),[19],-0.256
same,glycan array binding signal (z-score),[20],-0.267
same,glycan array binding signal (z-score),[21],-0.247
same,glycan array binding signal (z-score),[22],-0.19
same,glycan array binding signal (z-score),[23],-0.194
same,glycan array binding signal (z-score),[24],-0.214
same,glycan array binding signal (z-score),Gal(b1-3)GlcNAc6S,-0.286
same,glycan array binding signal (z-score),[25],-0.271
same,glycan array binding signal (z-score),[26],-0.111
same,glycan array binding signal (z-score),[27],1.84
same,glycan array binding signal (z-score),[28],-0.201
same,glycan array binding signal (z-score),[29],-0.268
same,glycan array binding signal (z-score),[30],-0.152
same,glycan array binding signal (z-score),[31],-0.182
same,glycan array binding signal (z-score),[32],-0.205
same,glycan array binding signal (z-score),[33],-0.188
same,glycan array binding signal (z-score),[34],-0.189
same,glycan array binding signal (z-score),Gal(b1-4)Gal,-0.185
same,glycan array binding signal (z-score),[35],-0.276
